Experimental data as given in paper PMC12040169 (PLOS Biology, 2025).
The list shows a part of the results.

System: T1, C. trachomatis L2/434/Bu expressing GFP (CTL2-GFP)
T1 construct: L2/434/Bu GFP intracellular growth in HeLa cells
Set-up: species or system HeLa; C. trachomatis total inclusion area by high-content imaging, normalised to DMSO
Conditions: total inclusion area; 28.5 h, 10 µM; inhibitor
Outline: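 High-content imaging followed the bulk GFP/resorufin measurement: fixed, Hoechst-stained cells were scored for GFP inclusions and host nuclei per well. Total inclusion area and count served as growth proxies, nuclei number as the viability proxy. MIC calculation matched the bulk assay.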

| Structure (SMILES) | % of control remaining |
| --- | --- |
| CCC(C)NC(=O)C1CCC(=O)N1Cc1ccc(C)cc1 (stereo not shown) [CBK294470] | 117.032 |
| CC(C)(C)OC(=O)N1CC2(C1)N=C1C=C(C(C)(C)C)ON1[C@H]1[C@H](O)[C@H](O)C[C@H]12 [CBK303240] | 63.761 |
| Cc1ccc(S(=O)(=O)NC(C)(C)CSc2nncn2N)cc1 [CBK266297] | 127.055 |
| CCOc1cc(C)ccc1S(=O)(=O)n1nnc2ccccc21 [CBK287796] | 69.1659 |
| CCNC(=O)N1CCN(CCCCN2C(=O)CC3(CCCC3)CC2=O)CC1 [CBK024999C] | 99.2428 |
| COC(=O)CCC(=O)N1CCC2(CCN(Cc3ccccc3)C2)C1 (stereo not shown) [CBK136852] | 90.2453 |
| Cc1ccccc1NC(=O)c1cnc2sccn2c1=O [CBK287447] | 103.316 |
| CC(NS(=O)(=O)c1ccccc1Cl)C(=O)N1CCCCC1C (stereo not shown) [CBK305797] | 52.0537 |
| COc1cc(F)ccc1S(=O)(=O)NC1CC(C)(C)NC(C)(C)C1 [CBK266428] | 94.2991 |
| Cc1nnc(CN(C)C2CCN(CCCc3ccccc3)C2)n1C (stereo not shown) [CBK304000] | 81.322 |
| O=C(CSc1nnc(-c2cccnc2)o1)c1ccccc1 [CBK068446] | 2.65 |
| C=CCNC(=O)[C@H]1C=CCN1C(=O)Nc1ccccc1Cl [CBK282348] | 73.5236 |
| COc1ccc(-c2noc(CNC(=O)Cc3ccc(-c4ccccc4)cc3)n2)cc1 [CBK269272] | 107.372 |
| O=C(CN(Cc1ccc(F)cc1)S(=O)(=O)c1ccc(Cl)cc1)Nc1ccc2c(c1)OCCO2 [CBK265346] | 85.1936 |
| CC(=O)N[C@H]1CO[C@H]2[C@@H]1OC[C@@H]2n1nnnc1Oc1ccc(-n2ccnc2)cc1 [CBK289487] | 87.1383 |
| O=C(O)C1CCN(C(=O)CCn2ccc3cc(Br)ccc32)CC1 [CBK286617] | 104.943 |
| Cc1cccc2c1CC(=O)NC21CCN(Cc2ccccc2)CC1 [CBK039819] | 99.9934 |
| COC(=O)C1(Cc2ccccc2)CN(C(=O)OC(C)(C)C)CCC1=O (stereo not shown) [CBK003486] | 105.11 |
| CCN1CCN(C(=O)CN(Cc2ccc(F)cc2)S(=O)(=O)c2ccccc2)CC1 [CBK266612] | 97.0213 |
| CSc1nnc(-c2ccc(C(C)(C)C)cc2)n1Cc1ccco1 [CBK017071] | 88.4057 |

| Structure (SMILES) | % of control remaining |
| --- | --- |
| O=C(Nc1nnc(SCc2cc(=O)n3nc[nH]c3n2)s1)c1ccc(F)cc1 [CBK294399] | 119.411 |
| COc1ccc2nc(N3CCc4ccccc4C3)sc2c1 [CBK287493] | 108.601 |
| Cc1ccc(SCS(=O)(=O)c2ccc(C)cc2)cc1 [CBK026853] | 45.0893 |
| Cc1cc(-c2cn3ccnc3c(N3CCOCC3)n2)cc(C)c1O [CBK066691] | 130.454 |
| Cc1ccnc(SCC(N)=O)n1 [CBK028874] | 59.5738 |
| CCN1CCCC1Cn1c(=S)[nH]c2ccccc2c1=O (stereo not shown) [CBK267849] | 120.742 |
| O=C(c1cccc([N+](=O)[O-])c1)c1ccc2c(c1)C(=O)N(Cc1cccnc1)C2=O [CBK262784] | 115.359 |
| O=C1CC(N2CCN(c3ccc(S(=O)(=O)N4CCOCC4)cc3)CC2)C(=O)N1Cc1ccccc1 (stereo not shown) [CBK268713] | 95.1036 |
| COCCCNC(=O)COc1cc(C)ccc1C [CBK264625] | 91.6793 |
| CC(=O)Nc1nc2[nH]c(C)c(Cc3ccccc3)c(=O)n2n1 [CBK288202] | 95.4357 |
| CC(=O)NC1(c2ccc(F)cc2)CCN(Cc2cccnc2)CC1 [CBK283610] | 93.235 |
| CCn1c(=O)n(CC(=O)N2CCc3ccccc32)c2cccnc21 [CBK283826] | 108.137 |
| C[S+]([O-])CCNC(=O)c1cnn(-c2ccc(F)cc2)c1 (stereo not shown) [CBK283245] | 76.2774 |
| O=C([C@@H]1C[C@@H](O)[C@H](O)[C@@H]2NC(=S)N(c3ccc4c(c3)OCO4)[C@@H]21)N1CCCCC1 [CBK288945] | 101.582 |
| COc1ccc([C@@]23CC[C@@H](NC(=O)c4ccc(C(F)(F)F)c(F)c4)C[C@@H]2CN(C)C3)cc1OC [CBK082742C] | 89.8223 |
| CC(=O)NC[C@H]1CN(c2ccc3c(c2)CCN(C(C)=O)CC3)C(=O)O1 [CBK018491] | 2.743 |
| CCC(C)Nc1nc(SCC(=O)OC)nc(N(C)C)n1 (stereo not shown) [CBK269780] | 65.6865 |
| COc1ccc2cc(C(=O)N3CCn4cncc4C3)n(C)c2c1 [CBK304362] | 52.9987 |
| CCC(CO)NCc1ccc(-c2ccccc2)cc1 (stereo not shown) [CBK268082C] | 95.2639 |
| CN(C)C(CNCc1cn(C)nc1-c1cccnc1)c1ccccc1 (stereo not shown) [CBK304511] | 56.8761 |
